Data on 22 molecules can be found in article PMC12136788.

This is one part of the list.

T1: UNK ZnF1-3 (human, UniProt Q9C0B0 31-174)
T1 sequence: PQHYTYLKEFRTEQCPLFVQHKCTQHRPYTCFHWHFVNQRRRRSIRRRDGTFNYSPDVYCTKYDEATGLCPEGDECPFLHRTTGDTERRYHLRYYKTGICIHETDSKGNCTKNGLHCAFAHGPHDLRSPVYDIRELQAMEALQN

B1: chr5:128440902:128440903:+_ENSG00000066583_ENST00000173527|hu_mus|hu_hu_hu_mus_True|1_88 (ssRNA)
RNA: GGGAGUUCUACAGUCCGACGAUCUUGAACGGUGCUGCCAAGUCCUUUAGGGUAUUGUUCCGUUAUGAUAACUGGAAUCCCUAAGAUCCGAGCUCCUUGCAACAGUCUCUGUCCCACACUAAUGAUGUCCCCAAAGUACUUGAUCAACAGAGGAUUGAGCAUCA
B2: chr17:72008250:72008251:+_ENSMUSG00000041057_ENSMUST00000047086|mus_mus|FALSE|FALSE (ssRNA)
RNA: GGGAGUUCUACAGUCCGACGAUCCCAUUUAUAGACAAAUAACAACUGUACAUCAGUCGCUCCAGCAGCUUGCCCAACAUGCCCUUCCCGCUUCGGCUGGGCAGCCUGCUCUGCCCCGGUGGAAGUCCUCCCAGAGAGCAUUCUCAACAGAGGAUUGAGCAUCA
B3: chr3:159597999:159598000:+_ENSMUSG00000028173_ENSMUST00000068952|mus_mus|motif|central (ssRNA)
RNA: GGGAGUUCUACAGUCCGACGAUCAGCAAGAAGUUAAAAAAAGCUUUUAGGACCCAAAGGCCAUUUAAUACCAGAAAUCCGGUUUGGGUAGUUAAGCAAAUAUUUCUCAAAAUCCACAAACAAACAGACAGAUUAGUAUCAAAUCAACAGAGGAUUGAGCAUCA
B4: chr11:68582865:68582866:-_ENSG00000110090_ENST00000265641|hu_hu|motif|central (ssRNA)
RNA: GGGAGUUCUACAGUCCGACGAUCCUUGAAUCUGAUGAACUUCUUUUUCCAGGAAUGAAGUCCAGAGAGAUAGAUUUGUCGGAGAGCUUCAUGGCUCAGCCGCAGGUCAAUCCCGUCCGGAGUGACCGUGAACUGAAAGGCCACCAACAGAGGAUUGAGCAUCA
B5: 120496184_120496304_2506_CDS_ENSG00000134250_ENST00000256646|human|control|control (ssRNA)
RNA: GGGAGUUCUACAGUCCGACGAUCAGUACACCUGUAUCCAUUCACCAGAUUGUCACAAGUUCCUCCAUUCUGGCAUGGAUUCGAAAGGCAUUCAUUUUUGUCCACUUCACAGUUGAUGCCAACCCAGCCUGCAUCACAGAGACACAACAGAGGAUUGAGCAUCA
B6: chr18:33956166:33956167:-_ENSMUSG00000024376_ENSMUST00000025234|mus_mus|motif|central (ssRNA)
RNA: GGGAGUUCUACAGUCCGACGAUCCUUGGAUUUGGUUUUAGUUUGGGGUGAGGGAGAUUGUGGGAAAGGCCACAGUUCAACCGGAGGAGUUAAGGGUAGAGCUUGGCAAGCACUAUCACUGAGCAGUCUACCCCCCAACUGAACCAACAGAGGAUUGAGCAUCA
B7: chr9:91949571:91949572:+_ENSG00000187742_ENST00000375807|hu_hu|motif|central (ssRNA)
RNA: GGGAGUUCUACAGUCCGACGAUCAAUGUGUUUUUCUUUGUUGUAGGAAGGAUCCGAAGAUAAAGCUUCAGAAGAUGGUAUACGGACAUUUUUAGGAUCUGCUGAUGAAGCAAUGGUCUUUAAGUUUAUCAUAGAAGUAACAUUCAACAGAGGAUUGAGCAUCA
B8: 46276008_46277766_3720_CDS_ENSG00000124151_ENST00000372004|human|control|control (ssRNA)
RNA: GGGAGUUCUACAGUCCGACGAUCUCGGCUCUGAUUCAAAAACUGCUGGCCCUGCAGCCUCUGCUGAAGCUGCAUUCUAAGUUGCUUGGGGGUGUUUGUCCGGGGUCUCAUGAUGUUGGCUCGUGGGUGCAUUCCUUGGAGAGGCAACAGAGGAUUGAGCAUCA
B9: chr2:118749752:118749753:+_ENSMUSG00000040007_ENSMUST00000036578|mus_hu|FALSE|FALSE (ssRNA)
RNA: GGGAGUUCUACAGUCCGACGAUCAAUAUAAGGAGAUCCAAGUCCCUUCCCUUCAGGUUUGGGAUCAGGCUUCCCAAGCAUAAAUUCACCUCUGAAGCCUCCAGGCCUCACCCAAACCCAAUGACCAAUCAGGAGCAACUCAUCCAACAGAGGAUUGAGCAUCA
B10: chr1:220276048:220276049:+_ENSG00000067704_ENST00000302637|hu_hu|hu_hu_hu_mus_True|8_48 (ssRNA)
RNA: GGGAGUUCUACAGUCCGACGAUCGCAAAUUGCCUGGUUGGCGGGAAUUGUCCAAGGCUGGGUGGUCCAAACUAAAACGCUAACAGGAGAUGAACCAUCUGUAAGAGACUCCAACUUCGGAGGAGGUUUUAAGAGAGGGAAUCUCAACAGAGGAUUGAGCAUCA
B11: chr2:232319755:232319756:-_ENSG00000115053_ENST00000322723|hu_hu|motif|central (ssRNA)
RNA: GGGAGUUCUACAGUCCGACGAUCAAAAGUUUAUAUGAAUAUCCAGUCAAAACCAACACGGUAUUGCCCUUGAAAUGUUAACGGGACGGAUUUCCAAGGAGACCACAGGACUGUAUACUGUCUUGGAAUGUCCUCAGAAGGCUCCAACAGAGGAUUGAGCAUCA
B12: chr11:51934471:51934472:+_ENSMUSG00000020349_ENSMUST00000020608|perfect_dup|FALSE|FALSE (ssRNA)
RNA: GGGAGUUCUACAGUCCGACGAUCGAUUGCAGCUUGGUUACCACAACGAUAACAAUAGUUUGGAGCACUGAAAAUCGUUACUACAUUCCGGUCAUGGCACCAGUUAUAUCCCUCCAUCACUAGCUGGUGAGCUCUAGACACCAACAACAGAGGAUUGAGCAUCA
B13: 44259387_44259507_406_5pUTR_ENSMUSG00000038736_ENSMUST00000038719|mouse|control|control (ssRNA)
RNA: GGGAGUUCUACAGUCCGACGAUCUGGAACUGAGGCUGGGAAACGGCGUGGUUCCCAUCCCAGACGACUCUGCGGCGCCACGUCUCUUCUGGGAAGUGUAGUGUCCAUGAGAAAUUUGGUUCUGUUGCAAUGCUGGGAAAUGUACAACAGAGGAUUGAGCAUCA
B14: 21789168_21789288_861_3pUTR_ENSMUSG00000028248_ENSMUST00000108229|mouse|control|control (ssRNA)
RNA: GGGAGUUCUACAGUCCGACGAUCUCCUUCCGCAUCUUCAGUGGCCUUCUUUUCUUUUUUUGACAACUGUGAACGCUGCUGUUCCAUUCUCUCUUUCUCUAACUUCUUCUGCUUUUCACGUUCCAUCUUCUCAAGGCCUUCACGCAACAGAGGAUUGAGCAUCA
B15: chr8:74746221:74746222:+_ENSMUSG00000003039_ENSMUST00000003123|mus_mus|motif|central (ssRNA)
RNA: GGGAGUUCUACAGUCCGACGAUCUUUAAUCAAGUCUCAGAAAACCUGGUCUCAGCAGAUUCACCAGCCAGGUGUAAAACAUUCGGGAAAACACGGAGGGACAAGACAAAACACUGUCAACCUGGCCUUCUGCCUUUUUGCACCCAACAGAGGAUUGAGCAUCA
B16: chr1:39494564:39494565:+_ENSG00000168653_ENST00000372967|hu_hu|hu_hu_hu_mus_True|18_18 (ssRNA)
RNA: GGGAGUUCUACAGUCCGACGAUCAUGCAUUCGCCUCAUCGUUUUGUACCGAAGCAAGCACUCUUCGAAGUCAUCGAACUCUAUCUUGCACUCCUUUUUCGCCCGGGUCCCACCGAUUCCAUGUGCACACUCUAUCCACUCUUUCAACAGAGGAUUGAGCAUCA
B17: 83150293_83152864_1523_3pUTR_ENSMUSG00000035152_ENSMUST00000018875|mouse|control|control (ssRNA)
RNA: GGGAGUUCUACAGUCCGACGAUCUUGGUCUGGAUUAGAUCAAGCAGUGUGCUUACACAGCGUUCUGCUGAUUGCUCCACUUUGAUGGCACACCGUCCAAUGGCCCUCACAGCUUUGCGAACAAAGUCCACAUCAACUUCAGUGCAACAGAGGAUUGAGCAUCA
B18: chr2:176857141:176857142:-_ENSG00000144320_ENST00000272748|hu_mus|FALSE|FALSE (ssRNA)
RNA: GGGAGUUCUACAGUCCGACGAUCUUUUUGCAAUCUCUGAUUUUUUUCUCUAAAUUCUUCCAAUGCUUGAAUUUCCUUAUCUAUAUUUUCUAGAACUUCUACUGUUGAAGGUUUUGCCCUCCAUCGAGAAAAUAAUCCACCCAUCAACAGAGGAUUGAGCAUCA
B19: chr14:102368134:102368135:+_ENSG00000078304_ENST00000445439|hu_hu|hu_hu_hu_mus_True|78_88 (ssRNA)
RNA: GGGAGUUCUACAGUCCGACGAUCAAGAGGCUCCAUGAUCUUCACAAAUUCUGAUGGUUCAAUGACAUCUAAAAUUUCUUCUAAUUCAUUUAAGAACAUUACUUCUUUUGGACUGUGAGUCUUUGGCCAGUAUUUGAGAAGUGCCAACAGAGGAUUGAGCAUCA
B20: chr2:75765252:75765253:+_ENSMUSG00000042410_ENSMUST00000047232|mus_mus|motif|central (ssRNA)
RNA: GGGAGUUCUACAGUCCGACGAUCAUUUAAAGCAAUUGUUCCACGUAUUUCAAUAUCCAGUUUUGAAUGUAAAAAUGUCUGCGGAAUGUAAUUAACGUUCUCCUUUUUAUUUAAGAAAUAGGAUAUUUCAAACUUGUGAUUAUGCAACAGAGGAUUGAGCAUCA
B21: chr1:182620099:182620100:+_ENSMUSG00000058729_ENSMUST00000085803|mus_hu|FALSE|FALSE (ssRNA)
RNA: GGGAGUUCUACAGUCCGACGAUCCAAAGGUUUCUUUUAUAUGUUAUGAUAAAUUAAAAUAUUUAUUAUUAUAAAAUGAUCUACAGAACCAUGUCACAUUGCAAGUAUAUAUAACAUAUACUUGUAAAGUCCACAUUUCCCAUCCAACAGAGGAUUGAGCAUCA
B22: chr6:114274515:114274516:-_ENSG00000196591_ENST00000368632|hu_mus|FALSE|FALSE (ssRNA)
RNA: GGGAGUUCUACAGUCCGACGAUCCAUCACGCGAUCUGUUGUAUAAAAAGCUUCCUCAACACCAUCACCAUGGUGGAUGUCUAUGUCAAUAUAUAAGACUCUCUGAUGAUACUUAAGUAAUUCGAGGAUGGCAAGCACAAUAUCCAACAGAGGAUUGAGCAUCA

The experiment concerns the target T1, UNK ZnF1-3. The experiment is described as follows: nsRBNS (natural sequence RNA bind-n-seq); RBNS binding buffer (assumed for nsRBNS): 25 mM Tris pH 7.5, 150 mM KCl, 3 mM MgCl2, 0.01% Triton X-100, 500 ug/ml BSA, 20 U/ml SUPERase-In, 4 C; UNK is unkempt and MSI1 is Musashi-1; names of the RNAs are library labels; protein concentration not given here; high values mean tight binding.
In the case of B1, the binding signal is 0.729 enrichment R.
The figure for B2 is 0.986 enrichment R.
For B3 the value was 2.13 enrichment R; for B4, 0.298 enrichment R.
The figure for B5 is 0.981 enrichment R; for B6 it is 1.07 enrichment R.
Regarding B7, the binding signal stood at 0.869 enrichment R.
For B8 the value was 0.834 enrichment R; for B9, 0.919 enrichment R; for B10, 1.77 enrichment R.
For B11 the value was 0.847 enrichment R; for B12, 1.24 enrichment R; for B13, 0.725 enrichment R.
For B14 the value was 0.36 enrichment R; for B15, 1.16 enrichment R.
For the molecule B16, the binding signal was 0.657 enrichment R.
For B17 the value was 0.378 enrichment R; for B18, 0.461 enrichment R; for B19, 0.645 enrichment R.
For B20 the value was 0.27 enrichment R.
In turn, B21 came in with a binding signal of 1.71 enrichment R.
Consider B22, for which the binding signal came to 1.81 enrichment R.
